Tests used:
[1] = target: L1CAM endogenously expressed on MCF-7 and MDA-MB-231 cells (UniProt P32004); assay: flow cytometry, MDA-MB-231 cells
[2] = target: L1CAM endogenously expressed on MCF-7 and MDA-MB-231 cells (UniProt P32004); assay: flow cytometry, MCF-7 cells

EC50 [1]: 0.98 nM
EC50 [2]: 1 nM
B1: 15G02 (antibody, V domains shown)
VH: EVQLVESGGGLVQPGGSLRLSCGVSGFTFSHYWMNWVRQAPGKGLEWVANIMQDGSEKYYVDSVKGRFTISRDNAKNSLYLQMNSLRVEDTAVYYCARDRGVTTLFDYWGQGILVTVSS
VL: [sequence of about 100 residues not given]TFGQGTKVEIK
